Data from PubChem BioAssay AID686979 (National Center for Advancing Translational Sciences (NCATS), 2013).
The campaign covered roughly 420,000 compounds. About 50,000 (12%) were called active. Inconclusive results, whose numbers are uncertain, are shown with a selection of clear calls. Calls follow the shape of the dose curve; as a rule, active = well fitted inhibition curve with a large enough effect; inconclusive = small, poorly fitted or top-dose-only effect; inactive = flat fitted curve, though single readings scatter. Potencies of inconclusive entries are left out as doubtful fits.
% is scaled to controls: 0 for no effect and ±100 for the full control effect; potency is read from the fitted curve at half-maximal effect; tags tell the direction and shape of the fitted curve.

Experiment: qHTS for Inhibitors of human tyrosyl-DNA phosphodiesterase 1 (TDP1): qHTS in cells in presence of CPT; also: nearly all actives have a fitted effect of over 55% in size
Conditions: chicken DT40 Tdp1-/-;hTDP1 cells + 20 nM CPT, ATP luminescence, 48 h; activity change, negative = growth inhibition: at 46.2 µM (top of the series) unless noted
Outline: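 Cell growth measured by CellTiter-Glo luminescence after a minimum 48 h, 37 C compound exposure with 20 nM CPT in Tdp1-knockout DT40 cells stably expressing hTDP1, seeded 400/well; qHTS titration format.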
With Cc1cc(C(F)(F)F)c2c(N)c(C(=O)NCc3ccc(Cl)cc3)sc2n1 the Potency was inconclusive [inhibitor, partial curve, poor fit]. For COc1ccc(C(=O)NNS(=O)(=O)c2ccccc2)cc1OC, the “activity change, negative = growth inhibition” value was inactive: -10.9%. With CCO[C@@H]1OC(C(=O)O)=C[C@H](C2CC2)[C@H]1CCCO the “activity change, negative = growth inhibition” value was inactive: 2.83%. For COc1ccc(S(=O)(=O)NCC2CCCO2)cc1C(=O)O (centres undefined), the “activity change, negative = growth inhibition” value was inactive: 37.4%. In the case of O=S(=O)(Nc1nc2ccccc2nc1N1CCN(c2ccccc2F)CC1)c1ccc(Cl)cc1, the Potency is reported as inconclusive [inhibitor, partial curve]. For CCCC(=O)NC(=S)Nc1ccccc1N1CCOCC1, the Potency was inconclusive [inhibitor, single point]. In the case of Cc1noc(C)c1-c1ccc(C(=O)NCc2ccc(Cl)cc2)c2occc12, the Potency is reported as inconclusive [inhibitor, single point]. With Cc1cccc(C(=O)Nc2cccc(C(=O)N/N=C/c3ccc4c(c3)OCO4)c2)c1 the Potency was inconclusive [inhibitor, single point]. In the case of CCOC(=O)c1[nH]c2ccccc2c1NC(=O)c1ccccc1OCC, the Potency is reported as active: 0.651 µM. With COc1ccccc1CN1CC(C(=O)N2CCN(c3ccc(F)cc3)CC2)CC1=O (centres undefined) the Potency was inconclusive [inhibitor, partial curve]. For CN(C)C(=O)C(OC(=O)c1ccc2c(c1)CCCC2)c1ccccc1 (centres undefined), the Potency was inconclusive [inhibitor, partial curve, poor fit]. With Cc1ccc(-n2nc3ccc(NC(=O)c4oc5ccccc5c4C)cc3n2)cc1 the Potency was inconclusive [inhibitor, single point]. For CC1(c2nnnn2-c2ccc3c(c2)OCCO3)CCC(=O)N1CCc1c[nH]c2ccccc12 (centres undefined), the Potency was inconclusive [inhibitor, single point]. With O=C(N/N=C/c1cn(-c2ccccc2)nc1-c1cc2ccccc2o1)c1ccccc1Br the Potency was active: 4.61 µM. With COc1ccc(-n2c(SCC(=O)Nc3nc(C)cs3)nnc2-c2ccoc2C)cc1 the Potency was inconclusive [inhibitor, single point]. With O=C(Nc1ccc(N2CCCC2)c(S(=O)(=O)Nc2cccc(C(F)(F)F)c2)c1)c1cccs1 the Potency was inconclusive [inhibitor, single point]. With COc1ccccc1CNC(=O)c1ccccc1NC(=O)c1nsc2ccccc12 the Potency was inconclusive [inhibitor, single point]. With Fc1ccc2[nH]c3c(N4CCN(Cc5ccc6c(c5)OCO6)CC4)ncnc3c2c1 the Potency was active: 2.31 µM. In the case of CCCOP(=O)(OCCC)c1c([N+](=O)[O-])cc(C(F)(F)F)cc1[N+](=O)[O-], the Potency is reported as inconclusive [inhibitor, single point]. With O=C1COc2ccccc2N1Cc1c(F)cccc1Cl the “activity change, negative = growth inhibition” value was inactive: -5.89%. In the case of O=C(NCC(O)c1nc2ccccc2[nH]1)c1cc2ccccc2[nH]1 (centres undefined), the “activity change, negative = growth inhibition” value is reported as inactive: -20%. In the case of S=c1[nH]nc(-c2ccccn2)n1/N=C/c1ccc(-c2ccccc2Br)o1, the “activity change, negative = growth inhibition” value is reported as inactive: -9.2%. In the case of CCCCNC(=O)c1nc(C2CCNCC2)oc1-c1ccccc1, the Potency is reported as inconclusive [inhibitor, single point]. For COC(=O)c1c(NC(=O)CN2CCOCC2)sc2c1CCC(C)C2 (centres undefined), the Potency was inconclusive [inhibitor, partial curve, poor fit]. For CC(C)CCOc1ccc(C(=O)N2CCCC2C(=O)O)cc1 (centres undefined), the “activity change, negative = growth inhibition” value was inactive: 4.39%. In the case of O=C1c2ccc(-c3ccc(Cl)c(C(F)(F)F)c3)cc2S(=O)(=O)c2cccc(C(=O)N3CCN(c4ccc(Cl)cn4)CC3)c21, the Potency is reported as inconclusive [inhibitor, single point]. For Cc1cccc(CNc2ncnc3ccc(-c4ccc5c(c4)OCO5)cc23)c1, the Potency was inconclusive [inhibitor, single point]. For CCOc1ccc(-c2nnc(SCC(=O)NC3CCCC3)nc2-c2ccc(OCC)c(OC)c2)cc1OC, the Potency was inconclusive [inhibitor, single point]. For CC1CCN(c2nc3nonc3nc2N2CCC(C)CC2)CC1, the Potency was inconclusive [inhibitor, single point]. For CC1(C(=O)Nc2cnc3ccccc3c2)CCN1Cc1ccc2ccccc2c1 (centres undefined), the Potency was active: 14.6 µM. For Cc1ccc(CNC(=O)COC(=O)c2cccnc2Cl)cc1, the “activity change, negative = growth inhibition” value was inactive: -20.1%. With Clc1cccc(-n2ncc3c(NC4CCCCC4)ncnc32)c1 the Potency was inconclusive [inhibitor, single point]. For Cc1cccc(/C=N\N=C\c2cccc(C)c2)c1, the “activity change, negative = growth inhibition” value was inactive: -18.1%. With Cc1nc2ccc(Br)cn2c1NC(C)(C)C the “activity change, negative = growth inhibition” value was inactive: -20.5%.
